In EPA's CvTdb concentration-time database:
The source gives many values for each of these; only a part stands here.

Tests used:
Assay in all cases: concentration in liver after dosing
[1] = system: Rat; details: 6744 h; dosed: 2,3,4,7,8-pentachlorodibenzofuran; 200 mg/kg; oral; Female; Harlan Sprague Dawley
[2] = system: Rat; details: 6744 h; dosed: 2,3,4,7,8-pentachlorodibenzofuran; 200 mg/kg; oral; Female; Harlan Sprague Dawley; remark: listed apart in the source
[3] = system: Rat; details: 120 h; dosed: 2,3,4,7,8-pentachlorodibenzofuran; 200 mg/kg; oral; Male; F344
[4] = system: Rat; details: 1464 h; dosed: 2,3,4,7,8-pentachlorodibenzofuran; 200 mg/kg; oral; Male; F344
[5] = system: Rat; details: 768 h; dosed: 2,3,4,7,8-pentachlorodibenzofuran; 200 mg/kg; oral; Male; F344
[6] = system: Rat; details: 1464 h; dosed: 2,3,4,7,8-pentachlorodibenzofuran; 200 mg/kg; oral; Male; F344; remark: listed apart in the source
[7] = system: Rat; details: 2208 h; dosed: 2,3,4,7,8-pentachlorodibenzofuran; 200 mg/kg; oral; Male; F344
[8] = system: Rat; details: 8184 h; dosed: 2,3,4,7,8-pentachlorodibenzofuran; 200 mg/kg; oral; Female; F344
[9] = system: Rat; details: 768 h; dosed: 2,3,4,7,8-pentachlorodibenzofuran; 200 mg/kg; oral; Male; F344; remark: listed apart in the source
[10] = system: Rat; details: 768 h; dosed: 2,3,4,7,8-pentachlorodibenzofuran; 200 mg/kg; oral; Male; F344; remark: listed apart in the source
[11] = system: Rat; details: 6000 h; dosed: 2,3,4,7,8-pentachlorodibenzofuran; 200 mg/kg; oral; Female; Harlan Sprague Dawley
[12] = system: Rat; details: 3984 h; dosed: 2,3,4,7,8-pentachlorodibenzofuran; 200 mg/kg; oral; Female; Harlan Sprague Dawley
[13] = system: Rat; details: 6000 h; dosed: 2,3,4,7,8-pentachlorodibenzofuran; 200 mg/kg; oral; Female; Harlan Sprague Dawley; remark: listed apart in the source
[14] = system: Rat; details: 8184 h; dosed: 2,3,4,7,8-pentachlorodibenzofuran; 200 mg/kg; oral; Female; F344; remark: listed apart in the source
[15] = system: Rat; details: 6744 h; dosed: 2,3,4,7,8-pentachlorodibenzofuran; 200 mg/kg; oral; Female; Harlan Sprague Dawley; remark: listed apart in the source
[16] = system: Rat; details: 2880 h; dosed: 2,3,4,7,8-pentachlorodibenzofuran; 200 mg/kg; oral; Female; Harlan Sprague Dawley
[17] = system: Rat; details: 3984 h; dosed: 2,3,4,7,8-pentachlorodibenzofuran; 200 mg/kg; oral; Female; Harlan Sprague Dawley; remark: listed apart in the source
[18] = system: Rat; details: 7416 h; dosed: 2,3,4,7,8-pentachlorodibenzofuran; 200 mg/kg; oral; Female; F344
[19] = system: Rat; details: 3984 h; dosed: 2,3,4,7,8-pentachlorodibenzofuran; 200 mg/kg; oral; Female; Harlan Sprague Dawley; remark: listed apart in the source
[20] = system: Rat; details: 8760 h; dosed: 2,3,4,7,8-pentachlorodibenzofuran; 200 mg/kg; oral; Female; F344
[21] = system: Rat; details: 6000 h; dosed: 2,3,4,7,8-pentachlorodibenzofuran; 200 mg/kg; oral; Female; Harlan Sprague Dawley; remark: listed apart in the source
[22] = system: Rat; details: 2208 h; dosed: 2,3,4,7,8-pentachlorodibenzofuran; 200 mg/kg; oral; Male; F344; remark: listed apart in the source
[23] = system: Rat; details: 6744 h; dosed: 2,3,4,7,8-pentachlorodibenzofuran; 200 mg/kg; oral; Female; Harlan Sprague Dawley; remark: listed apart in the source
[24] = system: Rat; details: 288 h; dosed: 2,3,4,7,8-pentachlorodibenzofuran; 200 mg/kg; oral; Male; F344
[25] = system: Rat; details: 768 h; dosed: 2,3,4,7,8-pentachlorodibenzofuran; 200 mg/kg; oral; Male; F344; remark: listed apart in the source
[26] = system: Rat; details: 120 h; dosed: 2,3,4,7,8-pentachlorodibenzofuran; 200 mg/kg; oral; Male; F344; remark: listed apart in the source
[27] = system: Rat; details: 8760 h; dosed: 2,3,4,7,8-pentachlorodibenzofuran; 200 mg/kg; oral; Female; F344; remark: listed apart in the source
[28] = system: Rat; details: 5088 h; dosed: 2,3,4,7,8-pentachlorodibenzofuran; 200 mg/kg; oral; Female; Harlan Sprague Dawley
[29] = system: Rat; details: dosed: 2,3,4,7,8-pentachlorodibenzofuran, 200 mg/kg, oral
[30] = system: Rat; details: 2880 h; dosed: 2,3,4,7,8-pentachlorodibenzofuran; 200 mg/kg; oral; Female; Harlan Sprague Dawley; remark: listed apart in the source
[31] = system: Rat; details: 2880 h; dosed: 2,3,4,7,8-pentachlorodibenzofuran; 200 mg/kg; oral; Female; Harlan Sprague Dawley; remark: listed apart in the source
[32] = system: Rat; details: 8184 h; dosed: 2,3,4,7,8-pentachlorodibenzofuran; 200 mg/kg; oral; Female; F344; remark: listed apart in the source
[33] = system: Rat; details: 6000 h; dosed: 2,3,4,7,8-pentachlorodibenzofuran; 200 mg/kg; oral; Female; Harlan Sprague Dawley; remark: listed apart in the source
[34] = system: Rat; details: 5088 h; dosed: 2,3,4,7,8-pentachlorodibenzofuran; 200 mg/kg; oral; Female; Harlan Sprague Dawley; remark: listed apart in the source
[35] = system: Rat; details: 5088 h; dosed: 2,3,4,7,8-pentachlorodibenzofuran; 200 mg/kg; oral; Female; Harlan Sprague Dawley; remark: listed apart in the source
[36] = system: Rat; details: 7416 h; dosed: 2,3,4,7,8-pentachlorodibenzofuran; 200 mg/kg; oral; Female; F344; remark: listed apart in the source
[37] = system: Rat; details: 8760 h; dosed: 2,3,4,7,8-pentachlorodibenzofuran; 200 mg/kg; oral; Female; F344; remark: listed apart in the source
[38] = system: Rat; details: 8760 h; dosed: 2,3,4,7,8-pentachlorodibenzofuran; 200 mg/kg; oral; Female; F344; remark: listed apart in the source
[39] = system: Rat; details: 5088 h; dosed: 2,3,4,7,8-pentachlorodibenzofuran; 200 mg/kg; oral; Female; Harlan Sprague Dawley; remark: listed apart in the source
[40] = system: Rat; details: 1464 h; dosed: 2,3,4,7,8-pentachlorodibenzofuran; 200 mg/kg; oral; Male; F344; remark: listed apart in the source
[41] = system: Rat; details: 8184 h; dosed: 2,3,4,7,8-pentachlorodibenzofuran; 200 mg/kg; oral; Female; F344; remark: listed apart in the source
[42] = system: Rat; details: 288 h; dosed: 2,3,4,7,8-pentachlorodibenzofuran; 200 mg/kg; oral; Male; F344; remark: listed apart in the source
[43] = system: Rat; details: 120 h; dosed: 2,3,4,7,8-pentachlorodibenzofuran; 200 mg/kg; oral; Male; F344; remark: listed apart in the source
[44] = system: Rat; details: 7416 h; dosed: 2,3,4,7,8-pentachlorodibenzofuran; 200 mg/kg; oral; Female; F344; remark: listed apart in the source
[45] = system: Rat; details: 288 h; dosed: 2,3,4,7,8-pentachlorodibenzofuran; 200 mg/kg; oral; Male; F344; remark: listed apart in the source
[46] = system: Rat; details: 1464 h; dosed: 2,3,4,7,8-pentachlorodibenzofuran; 200 mg/kg; oral; Male; F344; remark: listed apart in the source
[47] = system: Rat; details: 288 h; dosed: 2,3,4,7,8-pentachlorodibenzofuran; 200 mg/kg; oral; Male; F344; remark: listed apart in the source
[48] = system: Rat; details: 2208 h; dosed: 2,3,4,7,8-pentachlorodibenzofuran; 200 mg/kg; oral; Male; F344; remark: listed apart in the source
[49] = system: Rat; details: 2208 h; dosed: 2,3,4,7,8-pentachlorodibenzofuran; 200 mg/kg; oral; Male; F344; remark: listed apart in the source
[50] = system: Rat; details: 3984 h; dosed: 2,3,4,7,8-pentachlorodibenzofuran; 200 mg/kg; oral; Female; Harlan Sprague Dawley; remark: listed apart in the source

Clc1cc2oc3c(Cl)c(Cl)c(Cl)cc3c2cc1Cl [2,3,4,7,8-pentachlorodibenzofuran]
Details	concentration in liver [pg/g]
[1]	718
[2]	855
[3]	4440
[4]	3360
[5]	4270
[6]	2190
[7]	2110
[8]	937
[9]	3840
[10]	3770
[11]	794
[12]	1590
[13]	1120
[14]	613
[15]	1030
[16]	1650
[17]	1690
[18]	967
[19]	859
[20]	457
[21]	1330
[22]	1840
[23]	909
[24]	2950
[25]	4160
[26]	4000
[27]	429
[28]	1180
[30]	2110
[31]	1430
[32]	690
[33]	953
[34]	1470
[35]	969
[36]	845
[37]	391
[38]	687
[39]	777
[40]	3110
[41]	718
[42]	2850
[43]	4960
[44]	522
[45]	3840
[46]	3440
[47]	4640
[48]	3070
[49]	2020
[50]	1880

concentration in liver [pg/g], [29]
Details	F344	Harlan Sprague Dawley
1.5 h, Female	–	446
24 h, Female	–	4320
120 h, Male	4920	5000
288 h, Male	3660	–
768 h, Male	3940	–
1464 h, Male	4500	–
2208 h, Male	3280	–
2880 h, Female	–	1990
2880 h, Male	2050	–
3984 h, Female	–	1450
5088 h, Female	–	1050
6000 h, Female	–	919
6744 h, Female	–	1110
7416 h, Female	1130	1030
8184 h, Female	573	–
8760 h, Female	441	–
